This note sets out measurements from the supplement of paper PMC8047034.

Counter-ions that a name gives are not always drawn. Some of the results follow. Most values come without repeats; read them as rough.

The test system of one experiment is OVCAR4. Nature of the experiment: log2 surviving fraction (library drug vs vehicle, or drug + carboplatin vs carboplatin alone; relative to plate median); ovarian cancer lines: OVCAR4 is platinum-sensitive and Ov4Carbo platinum-resistant; higher = more cell survival. The note with it: library drug concentration 10 µM, 7 days.
The next experiment concerns Ov4Carbo. The description is as above. The note with it: library drug concentration 10 µM, 7 days.

As for `COc1cc([C@@H]2c3cc4c(cc3[C@@H](O[C@@H]3O[C@@H]5CO[C@@H](c6cccs6)O[C@H]5[C@H](O)[C@H]3O)[C@H]3COC(=O)[C@H]23)OCO4)cc(OC)c1O` [Teniposide (Vumon)], the log2 surviving fraction in the experiment with OVCAR4 (carboplatin co-treatment 0 µM) is -6.68; in the experiment with OVCAR4 (carboplatin co-treatment 5 µM), -6.96; in the experiment on Ov4Carbo (carboplatin co-treatment 0 µM) it was -7.48; in the experiment with Ov4Carbo (carboplatin co-treatment 5 µM) it was -6.47.
For the compound `O=C(O)c1ccc(-n2nc(-c3ccccc3O)nc2-c2ccccc2O)cc1` [Deferasirox (Exjade)], the log2 surviving fraction in the experiment on OVCAR4 (carboplatin co-treatment 0 µM) was -6.18; with OVCAR4 (carboplatin co-treatment 5 µM) it was -4.28; in the experiment with Ov4Carbo (carboplatin co-treatment 0 µM), -4.8; in the experiment with Ov4Carbo (carboplatin co-treatment 5 µM), -4.73.
Taken in the same sequence, the figures for `CCn1cc(C(=O)O)c(=O)c2cnc(N3CCCC3)nc21` [Piromidic Acid] were 0.149, 0.176, -0.168 and 0.278.
Taken in the same sequence, the figures for `CCOC(=O)[C@H](CCc1ccccc1)N[C@@H](C)C(=O)N1Cc2ccccc2C[C@H]1C(=O)O` [Quinapril HCl (Accupril)] were 0.662, 0.612, 0.505 and 0.911.
As for `CCOc1nc2cccc(C(=O)OC(C)OC(=O)OC3CCCCC3)c2n1Cc1ccc(-c2ccccc2-c2nn[nH]n2)cc1` (stereo not given) [Candesartan cilexetil (Atacand)], the log2 surviving fraction in the experiment on OVCAR4 (carboplatin co-treatment 0 µM) is 0.8; in the experiment on OVCAR4 (carboplatin co-treatment 5 µM) it was 0.983; in the experiment with Ov4Carbo (carboplatin co-treatment 0 µM) it was -0.112; in the experiment on Ov4Carbo (carboplatin co-treatment 5 µM), 1.11.
